# Data as given in PubChem BioAssay (NCI).
# More than one record can exist for a structure, and the calls need not agree.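 Growth was measured after 48 h exposure to one concentration of compound in 96-well plates. Values under 10 count as active.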 Not every entry of the source has a single result; some have several. The list is limited to them. An entry can have further records. This drug was run again and again over the years, at the concentration stated with the values; each value is one run. Brackets with × give the number of equal values in this list.
# System: SF-268 CNS
# Assay: NCI-60 one-dose screen, 48 h (100 = growth as untreated, 0 = no growth, -100 = all killed)
smiles,measurement,setting,value
COc1cccc2c1C(=O)c1c(O)c3c(c(O)c1C2=O)C[C@@](O)(C(=O)CO)C[C@@H]3OC1CC(N)C(O)C(C)O1 (stereo not given in full),growth,"0.25 µM, runs of 2018","inactive: 32.7, 33 (2×), 34.2, 33.6, 34.8, 34.9, 36.5, 33.1, 33.2, 30.6, 37.4, 35.2, 33.4, 35.9, 33.8, 30.2 (2×), 33.3, 33.9, 34, 37.5, 34.4, 30, 29.3, 26.4, 27.7, 34.6, 34.3, 21.6, 35.1 (2×), 31.4, 35.6, 25.4, 22.6, 36.3, 36.1, 32.5, 37, 39.5, 39.9, 39.6, 39.1, 34.5, 20.7, 17.5%"
same,growth,"0.25 µM, runs of 2019","inactive: 27.1, 18.1, 22.8, 17.6, 20.8, 22.5, 21.3, 21.6, 19.5, 22.6, 21.9, 18, 32.3, 26.4, 21.2, 30.9, 24.3 (2×), 25.3, 22.4, 27.6, 31.2, 20.7, 29, 23.8, 24.1, 24.8, 23, 28.3, 26, 35.1, 25.2, 25.6, 35.7, 31.5, 27.2, 32.6, 32.7, 23.7, 28.7, 24.6%"
same,growth,"0.25 µM, runs of 2020","inactive: 27, 27.3, 33.6, 31.3, 30.4, 29.3, 24.6, 35.2, 34.8, 29.7, 35.8, 30.7, 32.7, 33, 51.4, 31.8, 42.1, 37.4, 33.5, 37.8, 37.5, 29.6, 33.1, 41.6%"
same,growth,"0.25 µM, runs of 2021","inactive: 42.2, 50.4, 32.9 (2×), 35.9 (3×), 33.8, 30, 30.9 (2×), 36.8 (2×), 35.4 (2×), 31, 34.6 (2×), 34.4, 36, 35.5, 35.2, 30.5, 26.5, 25.6, 30.4, 26.8, 28.8, 29.4, 30.2, 29.6, 36.9, 27.7, 35.6, 38.2, 36.1, 30.6, 29, 41.7, 31.2, 28.6, 31.3, 26.7 (2×), 30.3, 24.6 (2×), 26.3, 33.7, 31.7, 32%"
same,growth,"0.25 µM, runs of 2022","inactive: 14.3, 15.1, 22.5, 17.5, 18.4, 25.5, 25.6, 30.8 (2×), 25.1, 32.7, 38.2, 21.7, 35.9, 26.2, 30.7, 21.5, 62.8, 73.2, 65.6, 58.3, 76.1, 28.8, 25.3, 44.1, 32.5% and active: 1.77%"
same,growth,"25 µM, runs of 1991","active: -15.7, -50.7, -52.6, -60.8, -100, -57.4, -60.6, -55, -48.2, -40.9, -62.8, -29.7, -53.4, -54.6, -51.8, -50.8, -50.1, -54.2, -50.2%"
same,growth,"25 µM, runs of 1992","active: -51.8, -42.7, -53.7 (2×), -40.2, -49 (3×), -54.8, -52.6, -60.3, -50.1, -58.1, -49.1, -58.4 (2×), -49.7, -47.8, -55.9, -61, -52.2, -53.4, -57.4 (2×), -48.8, -40, -65, -49.5, -50.9, -73.1, -58.7, -42.4, -3.23, -43.5, -71.3, -51, -63.1 (2×), -62.8, -63 (3×), -35.2, -44.1, -44.4, -55.8, -67.8, -45.2, -94, -64, -47.6, -55.3, -67, -58.2 (3×), -54.1 (2×), -65.4, -46.6, -54.9, -43.8, -72.7, -63.9, -61.9, -66.7, -68.6, -60.4, -69.1, -5.64, -47.7 (2×), -45.9, -51.5, -51.6, -38.9, -52.9, -78.3, -48.4, -74.8, -59, -67.3, -54.5, -53.3, -49.3, -47.2 (2×), -51.2, -62.1, -27.4, -23.3, -52.8, -65.6, -66.9, -56.1, -57.8, -52.7, -39.5, -42.1, -78.5, -71.6, -36.8, -68.4, -35.5, -38.6, -63.2, -51.1 (2×), -41.6, -27.7, -42.9, -45.4, -50, -53.9, -59.6, -49.9% and inactive: 104%, 13.2%"
same,growth,"25 µM, runs of 1993","active: -46.7, -24.2, -33.7, -33.8, -13.4, -66, -20.5, -54.8 (2×), -48.1, -25.3, -52.2, -43.9, -22.1, -40.9, -42.8, -41.3, -34.4, -18.9, -67.8, -35.8, -18.3, -38.1, -36.3, -32.5, -58.9, -52.4, -28.1, -1.69, -41, -50.4, -26.8, -29.1, -27.1, -21.1, -29.9, -44, -38.3, -60.4, -27.4, -76.2, -26.4, -45.9, -50.2, -25.9, -55.2, -44.6%"
same,growth,"25 µM, runs of 1994","active: -38.9, -56.6, -48.4, -26.9, -6.43, -51.5, -41.5, -13.9, 4.19, -50.4, -42.9, -51.3, -25.5, -51.9, -30.7, -72.2, -35.1, -32.3, -47.8, -44.9, -41.2, -50.1, -35.7, -25.9, -75.7, -47.7, -39.4, -35, -49.2, -40.9, -29.8% and inactive: 80.7%, 21%, 107%"
same,growth,"25 µM, runs of 1995","active: -40.1 (2×), -30.5, -33.4, 1.93, -47.4, -53.6, -51.9, -27.1, -48.1, -49.5, -54.8, -59.2, -24.9 (2×), -47.8, -49.4, -51.2, -40.2, -50.2, -49.2, -50.8, -43.1, -70.7, -16.1, -36.1, -35.1 (2×), -51.7, -88.1, 5.47, -32, -30.9, -31.1, -32.9, -36.7, -48.4, -17.1, -29.4, -28.3, -39.6%"
same,growth,"25 µM, runs of 1996","active: -38.3, -21.9, -22.1, -22.7, -11.4, -58.8, -4.41, -11.7, -18.4, -15.8, -17.7, -24.1, -44.7, -18.1, -18.6, -30.3, -51.9, -41.5, -29.8, -26.2, -49.8, -39.5 (2×), -34.8, -43.9, -9.21, -46, -42.5, -43.5, -52.1, -45.1, -42.2, -28.2, -56.1, -46.8, -43, -46.4, -64.1, -28.9, -37.9, -52.7, -38.7, -37.7, -58.6, -38, -20.5, -34.6, 8.09, -58.7, -60, -44.1, -49.3% and inactive: 98.3%"
same,growth,"25 µM, runs of 1997","active: 3.74, -38, -15.5, -56.1, -29.4, -48.7, -51.9, -19.5, -43.4, -58, -40.9, -67, -46.3, -50.3, -37.5, -51.1 (2×), -59.4, -42.8, -47.7, -35.9, -52.8, -40, -62.1, -36 (2×), -34.2, -41.5, -50.2, -35.6, -46, -42.1, -58.5, -45.6, -40.8, -26.5, -40.7, -44.9, -49.7, -10.8, -49.5, -55.1, -52.2, -49%"
same,growth,"25 µM, runs of 1998","active: -30.8, -51.9, -50.9, -27.1, -67.7, -40.3, -71.7 (2×), -46.8, -72, -86.2, -74.4, -76.5, -46.7, -62.9, -76.4, -90.8, -24.4, -43.6, -69.2, -70, -49.7, -43.5, -28.4, -35.3, 8.41%"
same,growth,"25 µM, runs of 1999","active: -91.4, -73.9, 7.34, -69.2, -73.7, -60.2, -40.3, -48.8, -33.1, -49.4, -31.4, -39.2, -15.3, -22.3, -33.9, -9.65, -12, -7.17, -26.1, -32.3, -14.6, -19.6, -22.2, -15, -9.98, 2.2, -100 (2×), -88.7 (2×), -64.1, -79.7, -40, -57.5, -6.04, -6.18, -9.21, -8.85, -22.5, 0.397, -48.1, -14.1, -48.4%"
same,growth,"25 µM, runs of 2000","active: -100% (2×), -50.3%"
